These are yes or no findings as the source states them, for the method shown. In cells and extracts the contact can be indirect. Some entries that bind do so weakly or less than the wild type. Tags and fused reporters may be left off the sequences shown.

Sequences of proteins named here, by UniProt entry; tags and fusion partners are left off.
UniProt P05804: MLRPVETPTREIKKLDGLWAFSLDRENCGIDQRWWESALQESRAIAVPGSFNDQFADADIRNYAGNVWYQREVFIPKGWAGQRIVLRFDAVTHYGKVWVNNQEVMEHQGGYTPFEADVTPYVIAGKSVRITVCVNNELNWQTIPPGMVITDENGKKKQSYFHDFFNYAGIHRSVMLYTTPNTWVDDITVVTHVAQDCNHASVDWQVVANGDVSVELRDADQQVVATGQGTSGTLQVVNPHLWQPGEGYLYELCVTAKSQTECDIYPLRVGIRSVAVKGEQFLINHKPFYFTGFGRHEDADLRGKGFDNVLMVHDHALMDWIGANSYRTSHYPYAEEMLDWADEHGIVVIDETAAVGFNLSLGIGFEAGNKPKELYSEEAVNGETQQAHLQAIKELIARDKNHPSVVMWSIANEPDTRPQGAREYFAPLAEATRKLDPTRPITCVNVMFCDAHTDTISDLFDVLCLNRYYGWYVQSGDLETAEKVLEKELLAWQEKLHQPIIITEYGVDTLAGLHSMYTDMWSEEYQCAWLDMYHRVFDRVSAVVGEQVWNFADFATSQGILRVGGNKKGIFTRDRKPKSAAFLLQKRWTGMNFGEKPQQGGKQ

Experiment [1] concerns the target T1, cYFP-TIR1 (Arabidopsis thaliana) (UniProt Q570C0).
T1 sequence: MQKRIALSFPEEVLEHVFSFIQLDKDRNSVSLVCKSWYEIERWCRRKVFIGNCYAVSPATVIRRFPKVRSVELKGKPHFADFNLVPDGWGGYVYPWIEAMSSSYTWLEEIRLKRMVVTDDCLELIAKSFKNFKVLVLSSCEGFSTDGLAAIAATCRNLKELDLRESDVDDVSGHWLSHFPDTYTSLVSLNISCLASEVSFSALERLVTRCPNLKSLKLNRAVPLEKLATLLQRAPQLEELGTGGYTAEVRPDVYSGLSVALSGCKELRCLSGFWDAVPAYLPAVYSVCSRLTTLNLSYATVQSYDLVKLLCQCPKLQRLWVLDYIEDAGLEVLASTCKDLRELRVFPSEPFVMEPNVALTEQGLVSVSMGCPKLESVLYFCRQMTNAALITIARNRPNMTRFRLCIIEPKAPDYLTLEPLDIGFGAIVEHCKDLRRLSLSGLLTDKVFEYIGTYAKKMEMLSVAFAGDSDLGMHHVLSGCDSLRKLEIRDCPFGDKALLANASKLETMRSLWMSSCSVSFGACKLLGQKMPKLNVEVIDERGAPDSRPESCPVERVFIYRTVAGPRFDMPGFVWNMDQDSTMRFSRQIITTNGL
As to the kind of experiment: split reporter; BiFC; nYFP fusions and cYFP-TIR1 transiently co-expressed in Arabidopsis mesophyll protoplasts with NLS-tdTomato; 10 uM IAA added 30-60 min before confocal microscopy, 20-24 h after transfection.

For experiment [2], the target named is T2, IAA8-cYFP (Arabidopsis thaliana) (UniProt Q38826).
T2 sequence: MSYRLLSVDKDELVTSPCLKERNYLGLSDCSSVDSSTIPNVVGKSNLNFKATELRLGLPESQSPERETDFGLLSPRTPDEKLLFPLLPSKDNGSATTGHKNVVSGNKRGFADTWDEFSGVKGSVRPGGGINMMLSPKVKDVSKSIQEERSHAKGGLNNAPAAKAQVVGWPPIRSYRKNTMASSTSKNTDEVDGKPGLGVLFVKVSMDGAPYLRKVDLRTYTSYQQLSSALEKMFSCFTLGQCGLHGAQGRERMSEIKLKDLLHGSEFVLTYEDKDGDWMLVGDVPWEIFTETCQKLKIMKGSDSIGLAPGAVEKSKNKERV
Briefly: split reporter; BiFC; ARF-nYFP fusions or nYFP-GUS and IAA8-cYFP transiently co-expressed in Arabidopsis mesophyll protoplasts with NLS-tdTomato; confocal microscopy 20-24 h after transfection.

In experiment [3] the target is T3, IAA8-cYFP (Arabidopsis thaliana), Q38826.
T3 chain: T2 sequence
The experiment is described as above. As to conditions: remark: other sources report otherwise.

In the case of “nYFP-GUS (from UniProt P05804 1-603) (enzyme)”, the binding entry in experiment [1] and in experiment [2] was “no binding” in each case.

B1: ARF11-nYFP, Q9ZPY6 1-622 (protein)
chain: MSQTSLEPLIISIIKLQILQLWLKLIAVGWNLGSNDDELYTELWKACAGPLVEVPRYGERVFYFPQGHMEQLVASTNQGVVDQEIPVFNLPPKILCRVLSVTLKAEHETDEVYAQITLQPEEDQSEPTSLDPPLVEPAKPTVDSFVKILTASDTSTHGGFSVLRKHATECLPSLDMTQPTPTQELVARDLHGYEWRFKHIFRGQPRRHLLTTGWSTFVTSKRLVAGDAFVFLRGETGDLRVGVRRLAKQQSTMPASVISSQSMRLGVLATASHAVTTTTIFVVFYKPRISQFIISVNKYMMAMKNGFSLGMRYRMRFEGEESPERIFTGTIIGSGDLSSQWPASKWRSLQIQWDEPSSIQRPNKVSPWEIEPFSPSALTPTPTQQQSKSKRSRPISEITGSPVASSFLSSFSQSHESNPSVKLLFQDPATERNSNKSVFSSGLQCKITEAPVTSSCRLFGFDLTSKPASATIPHDKQLISVDSNISDSTTKCQDPNSSNSPKEQKQQTSTRSRIKVQMQGTAVGRAVDLTLLRSYDELIKELEKMFEIEGELSPKDKWAIVFTDDEGDRMLVGDDPWNEFCKMAKKLFIYPSDEVKKMRSKSLLGDKGTIVNLESDQRTVHV
With B1, the binding result in experiment [3] was “binds”.

B2: ARF4-nYFP (protein, UniProt Q9ZTX9 1-788)
chain: MEFDLNTEIAEVEEEENDDVGVGVGGGTRIDKGRLGISPSSSSSCSSGSSSSSSSTGSASSIYSELWHACAGPLTCLPKKGNVVVYFPQGHLEQDAMVSYSSPLEIPKFDLNPQIVCRVVNVQLLANKDTDEVYTQVTLLPLQEFSMLNGEGKEVKELGGEEERNGSSSVKRTPHMFCKTLTASDTSTHGGFSVPRRAAEDCFAPLDYKQQRPSQELIAKDLHGVEWKFRHIYRGQPRRHLLTTGWSIFVSQKNLVSGDAVLFLRDEGGELRLGIRRAARPRNGLPDSIIEKNSCSNILSLVANAVSTKSMFHVFYSPRATHAEFVIPYEKYITSIRSPVCIGTRFRMRFEMDDSPERRCAGVVTGVCDLDPYRWPNSKWRCLLVRWDESFVSDHQERVSPWEIDPSVSLPHLSIQSSPRPKRPWAGLLDTTPPGNPITKRGGFLDFEESVRPSKVLQGQENIGSASPSQGFDVMNRRILDFAMQSHANPVLVSSRVKDRFGEFVDATGVNPACSGVMDLDRFPRVLQGQEICSLKSFPQFAGFSPAAAPNPFAYQANKSSYYPLALHGIRSTHVPYQNPYNAGNQSSGPPSRAINFGEETRKFDAQNEGGLPNNVTADLPFKIDMMGKQKGSELNMNASSGCKLFGFSLPVETPASKPQSSSKRICTKVHKQGSQVGRAIDLSRLNGYDDLLMELERLFNMEGLLRDPEKGWRILYTDSENDMMVVGDDPWHDFCNVVWKIHLYTKEEVENANDDNKSCLEQAALMMEASKSSSVSQPDSSPTITRV
As for B2, the binding entry in experiment [2] is given as “binds”.

B3: ARF16-nYFP (protein, UniProt Q93YR9 1-670)
chain: MINVMNPMKGGTEKGLDPQLWHACAGGMVRMPPMNSKVFYFPQGHAENAYDCVDFGNLPIPPMVLCRVLAIKYMADAESDEVFAKLRLIPLKDDEYVDHEYGDGEDSNGFESNSEKTPSFAKTLTQSDANNGGGFSVPRYCAETIFPRLDYNAEPPVQTILAKDVHGDVWKFRHIYRGTPRRHLLTTGWSNFVNQKKLVAGDSIVFMRAENGDLCVGIRRAKRGGIGNGPEYSAGWNPIGGSCGYSSLLREDESNSLRRSNCSLADRKGKVTAESVIEAATLAISGRPFEVVYYPRASTSEFCVKALDARAAMRIPWCSGMRFKMAFETEDSSRISWFMGTVSAVNVSDPIRWPNSPWRLLQVAWDEPDLLQNVKRVNPWLVELVSNVHPIPLTSFSPPRKKMRLPQHPDYNNLINSIPVPSFPSNPLIRSSPLSSVLDNVPVGLQGARHNAHQYYGLSSSDLHHYYLNRPPPPPPPSSLQLSPSLGLRNIDTKNEKGFCFLTMGTTPCNDTKSKKSHIVLFGKLILPEEQLSEKGSTDTANIEKTQISSGGSNQNGVAGREFSSSDEGSPCSKKVHDASGLETGHCKVFMESDDVGRTLDLSVLGSYEELSRKLSDMFGIKKSEMLSSVLYRDASGAIKYAGNEPFSEFLKTARRLTILTEQGSESVVV
With B3, the binding entry in experiment [2] was “binds”.

B4: ARF19-nYFP (protein, UniProt Q8RYC8 1-1086)
chain: MKAPSNGFLPSSNEGEKKPINSQLWHACAGPLVSLPPVGSLVVYFPQGHSEQVAASMQKQTDFIPNYPNLPSKLICLLHSVTLHADTETDEVYAQMTLQPVNKYDREALLASDMGLKLNRQPTEFFCKTLTASDTSTHGGFSVPRRAAEKIFPPLDFSMQPPAQEIVAKDLHDTTWTFRHIYRGQPKRHLLTTGWSVFVSTKRLFAGDSVLFVRDEKSQLMLGIRRANRQTPTLSSSVISSDSMHIGILAAAAHANANSSPFTIFFNPRASPSEFVVPLAKYNKALYAQVSLGMRFRMMFETEDCGVRRYMGTVTGISDLDPVRWKGSQWRNLQVGWDESTAGDRPSRVSIWEIEPVITPFYICPPPFFRPKYPRQPGMPDDELDMENAFKRAMPWMGEDFGMKDAQSSMFPGLSLVQWMSMQQNNPLSGSATPQLPSALSSFNLPNNFASNDPSKLLNFQSPNLSSANSQFNKPNTVNHISQQMQAQPAMVKSQQQQQQQQQQHQHQQQQLQQQQQLQMSQQQVQQQGIYNNGTIAVANQVSCQSPNQPTGFSQSQLQQQSMLPTGAKMTHQNINSMGNKGLSQMTSFAQEMQFQQQLEMHNSSQLLRNQQEQSSLHSLQQNLSQNPQQLQMQQQSSKPSPSQQLQLQLLQKLQQQQQQQSIPPVSSSLQPQLSALQQTQSHQLQQLLSSQNQQPLAHGNNSFPASTFMQPPQIQVSPQQQGQMSNKNLVAAGRSHSGHTDGEAPSCSTSPSANNTGHDNVSPTNFLSRNQQQGQAASVSASDSVFERASNPVQELYTKTESRISQGMMNMKSAGEHFRFKSAVTDQIDVSTAGTTYCPDVVGPVQQQQTFPLPSFGFDGDCQSHHPRNNLAFPGNLEAVTSDPLYSQKDFQNLVPNYGNTPRDIETELSSAAISSQSFGIPSIPFKPGCSNEVGGINDSGIMNGGGLWPNQTQRMRTYTKVQKRGSVGRSIDVTRYSGYDELRHDLARMFGIEGQLEDPLTSDWKLVYTDHENDILLVGDDPWEEFVNCVQNIKILSSVEVQQMSLDGDLAAIPTTNQACSETDSGNAWKVHYEDTSAAASFNR
Consider B4, for which the binding result in experiment [2] is “binds”.

B5: ARF5-nYFP (protein, UniProt P93024 1-902)
chain: MMASLSCVEDKMKTSCLVNGGGTITTTTSQSTLLEEMKLLKDQSGTRKPVINSELWHACAGPLVCLPQVGSLVYYFSQGHSEQVAVSTRRSATTQVPNYPNLPSQLMCQVHNVTLHADKDSDEIYAQMSLQPVHSERDVFPVPDFGMLRGSKHPTEFFCKTLTASDTSTHGGFSVPRRAAEKLFPPLDYSAQPPTQELVVRDLHENTWTFRHIYRGQPKRHLLTTGWSLFVGSKRLRAGDSVLFIRDEKSQLMVGVRRANRQQTALPSSVLSADSMHIGVLAAAAHATANRTPFLIFYNPRACPAEFVIPLAKYRKAICGSQLSVGMRFGMMFETEDSGKRRYMGTIVGISDLDPLRWPGSKWRNLQVEWDEPGCNDKPTRVSPWDIETPESLFIFPSLTSGLKRQLHPSYFAGETEWGSLIKRPLIRVPDSANGIMPYASFPSMASEQLMKMMMRPHNNQNVPSFMSEMQQNIVMGNGGLLGDMKMQQPLMMNQKSEMVQPQNKLTVNPSASNTSGQEQNLSQSMSAPAKPENSTLSGCSSGRVQHGLEQSMEQASQVTTSTVCNEEKVNQLLQKPGASSPVQADQCLDITHQIYQPQSDPINGFSFLETDELTSQVSSFQSLAGSYKQPFILSSQDSSAVVLPDSTNSPLFHDVWDTQLNGLKFDQFSPLMQQDLYASQNICMSNSTTSNILDPPLSNTVLDDFCAIKDTDFQNHPSGCLVGNNNTSFAQDVQSQITSASFADSQAFSRQDFPDNSGGTGTSSSNVDFDDCSLRQNSKGSSWQKIATPRVRTYTKVQKTGSVGRSIDVTSFKDYEELKSAIECMFGLEGLLTHPQSSGWKLVYVDYESDVLLVGDDPWEEFVGCVRCIRILSPTEVQQMSEEGMKLLNSAGINDLKTSVS
For the molecule B5, the binding entry in experiment [2] is on record as “binds”.

These data come from article PMC3422273.
